From PubChem BioAssay AID445 (National Center for Advancing Translational Sciences (NCATS), 2006)
Screen size: about 110,000 compounds; about 40 (0.04%) were called active. This list was built around the results that the source calls inconclusive (neither active nor inactive); the mix of calls is not that of the screen. Calls follow the shape of the dose curve; as a rule, active = well fitted curve in the direction sought with a large enough effect in the signal ratio (not every such curve was filed as active); inconclusive = small, poorly fitted or top-dose-only effect, or a change in a side signal; inactive = flat fitted curve, though single readings scatter; the % refers to the signal ratio. Potencies of inconclusive entries are doubtful fits and often do not repeat.

Experiment: IkB Signaling;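 as to IkBa stabilization activation: 0% = basal untreated cells and 100% = reference inhibitor full response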
Details: ABC-DLBCL IkBa-CBG/CBR dual luciferase ratio (green luciferase fused to IkBa over red control in OCI-Ly3 lymphoma cells), 4 h; IkBa stabilization activation: at 57.1 µM (top of the series), scaled: untreated 0%, proteasome inhibitor 100% unless noted
Procedure, shortened: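 Luminescence ratio of IκBα-fused green versus native red beetle luciferase in OCI-Ly3 cells, 4 h post-doxycycline with compound; red signal alone, scaled from basal (0%) to zero light (-100%), flagged nonspecific or cytotoxic effects.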
Potency is read from the fitted curve at half-maximal effect.

| Compound | IkBa stabilization activation | Potency |
| --- | --- | --- |
| COc1ccc(-c2nc3cnc(OC)nc3n(-c3ccccc3)c2=O)cc1 | inactive: 0.343% [at 11.4 µM, scaled: untreated 0%, proteasome inhibitor 100%] |  |
| CCCn1c(=O)c(C(=O)Nc2ccccc2C(=O)OC)c(O)c2ccccc21 | inconclusive: 17.8% [signal inhibitor] |  |
| O=C1c2ccccc2-c2nc3ncnn3c(-c3ccccc3Cl)c21 | inactive: -4.2% |  |
| CCc1c(C)sc2c1CCN(C(=O)Nc1cc(C)ccc1OC)C2c1ccc(F)cc1 (centres undefined) | inactive: 0.674% |  |
| Cc1ccc(NS(=O)(=O)c2ccc3[nH]c4c(c3c2)CCCCCC4)cc1 | inactive: -0.727% |  |
| CCC(=O)N1CCc2cc(CNS(=O)(=O)c3ccc(Br)s3)ccc21 | inconclusive: 1.86% [signal inhibitor] |  |
| CCCN(CCC)CCNC(=O)c1sc2nc3n(c(=O)c2c1C)CCCCC3 | inactive: 3.12% |  |
| C[C@@H](SCc1ccccc1)C(=O)O | inactive: -0.311% [at 11.4 µM, scaled: untreated 0%, proteasome inhibitor 100%] |  |
| Cc1ccc(C)c(N2C(=O)N(C)c3ccccc3S2(=O)=O)c1 | inactive: -1.02% |  |
| NC(=O)C1CCN(C(=O)CCCCCn2c(=O)[nH]c3ccsc3c2=O)CC1 | inconclusive: 13% [signal inhibitor] |  |
| CC1CCCN(S(=O)(=O)c2ccc(N3CCCCS3(=O)=O)cc2)C1 (centres undefined) | inactive: -0.0334% |  |
| c1ccc(-c2cc(N3CCCCCC3)n[nH]2)cc1 | inconclusive: 3.01% [signal inhibitor] |  |
| CCC(CC)C(=O)Nc1c2cnn(-c3ccccc3)c2nc(=O)n1-c1ccccc1 |  | inconclusive: 20 µM [signal inhibitor, partial curve] |
| O=c1cc(-c2ccc(F)cc2)nc(SCc2nc(-c3cccc(C(F)(F)F)c3)no2)[nH]1 | inconclusive: -1.23% [signal inhibitor] |  |
| Cc1c(C(=O)N(Cc2cccc(F)c2)C2CCS(=O)(=O)C2)oc2cc(Br)ccc12 (centres undefined) | inconclusive: 3.36% [signal inhibitor] |  |
| COCCn1c(=O)c(-c2cc(F)cc(F)c2)nc2cnc(Oc3cccc(Cl)c3)nc21 | inactive: 6.08% [at 11.4 µM, scaled: untreated 0%, proteasome inhibitor 100%] |  |
| COc1ccc(NC(=O)CN2C(=O)C3(SCC(=O)N3c3ccccc3)c3ccccc32)cc1Cl (centres undefined) | inconclusive: 5.82% [signal inhibitor] |  |
| COc1ccc(CNC(=O)c2cccc(N3CCCS3(=O)=O)c2)cc1OC | inconclusive: 17% [signal inhibitor] |  |
| CN(C)CC(C)(C)CN1c2ccccc2Sc2ccccc21 | inactive: 0.762% [at 11.4 µM, scaled: untreated 0%, proteasome inhibitor 100%] |  |
| Cc1cccn2c(=O)c3cc(C(=O)NCc4ccco4)c(=N)n(CCc4ccccc4)c3nc12 | inactive: 6.8% |  |
| N[C@@H](Cc1c[nH]c2ccccc12)C(=O)NCC(=O)O | inactive: -0.0546% [at 11.4 µM, scaled: untreated 0%, proteasome inhibitor 100%] |  |
| CCc1ccc(N2C(=O)CSC23C(=O)N(Cc2cccc(OC)c2)c2ccccc23)cc1 (centres undefined) | inconclusive: -2.08% [signal inhibitor] |  |

| Compound | IkBa stabilization activation | Potency |
| --- | --- | --- |
| CCOC(=O)c1c(C)c(-c2ccccc2)n(CC(=O)NC2CCCCCC2)c1C | inactive: -0.254% |  |
| O=C(O)CCCc1ccc2ccccc2c1 | inactive: -3.25% [at 11.4 µM, scaled: untreated 0%, proteasome inhibitor 100%] |  |
| O=C(NCc1ccc(F)cc1)c1ccc(Cn2c(SCc3ccc(F)cc3)nc3cccnc32)cc1 | inconclusive: 1.04% [signal inhibitor] |  |
| COc1cc2c(cc1OC)/C(=C/C(=O)N1CCOCC1)NC(C)(C)C2 | inactive: -1.87% |  |
| CCN(CCCNC(=O)c1cc2cc3ccc(OC)cc3nc2s1)c1cccc(C)c1 | inconclusive: 4.88% [signal inhibitor] |  |
| CC(C)Cn1c(=O)c2ccccc2n2c(CCC(=O)NCc3ccc(Cl)cc3)nnc12 | inactive: -3.53% |  |
| O=C(Nc1ccc2oc(-c3ccccc3)nc2c1)c1cccnc1 | inconclusive: 1.93% [signal inhibitor] |  |
| CCCN1C(=O)c2[nH]nc(-c3cccc(OC)c3)c2C1c1ccccn1 (centres undefined) | inactive: 3.25% |  |
| CCC(C)NC(=O)c1ccc2c(c1)N(Cc1ccccc1F)C(=O)c1ccccc1S2=O (centres undefined) | inconclusive: 1.54% [signal inhibitor] |  |
| O=C(CCC(=O)N1CCSc2ccccc21)NCc1ccccc1Cl | inconclusive: 1.35% [signal inhibitor] |  |
| c1ccc(-c2nc3nonc3nc2-c2ccccc2)cc1 | inactive: 6.08% |  |
| Cn1c(=O)oc2cc(S(=O)(=O)NCCC(=O)NCc3ccc(F)cc3)ccc21 | inconclusive: 1.47% [signal inhibitor] |  |
| CCOC(=O)c1cccc(NC(=O)CSc2nc3ccccc3c(=O)n2CCOC)c1 | inactive: 1.42% |  |
| O=C(Nc1ccc2c(c1)nc1n2CCSC1)c1ccccc1 |  | inconclusive: 12.6 µM [signal inhibitor, partial curve] |
| CCN(C(=O)Cn1c(=O)nc(-c2ccccc2)c2cc(Cl)ccc21)c1cccc(C)c1 | inconclusive: 3.1% [signal inhibitor] |  |
| CCc1cccc(NC(=O)C2CCC(CNS(=O)(=O)c3ccc4c(c3)CCCC(=O)N4)CC2)c1 (centres undefined) | inconclusive: 9.96% [signal inhibitor] |  |
| CCc1nc2ccc(C(=O)NCc3ccc(SC)cc3)cc2nc1CC | inactive: 2.08% |  |
| CCCCCOC(=O)NCC(O)c1ccccc1 (centres undefined) |  | inconclusive: 25.1 µM [signal inhibitor, partial curve] |
| CCc1cccc(NC(=O)C(NS(=O)(=O)c2ccc3nc(C)sc3c2)C(C)C)c1 (centres undefined) | inconclusive: 3.03% [signal inhibitor] |  |
| COc1cccc(NC(CNS(=O)(=O)c2ccc(Cl)cc2)c2ccccc2)c1 (centres undefined) | inactive: 0.0669% |  |
| O=C(C1=C(O)C(=O)N(CCN2CCOCC2)C1c1ccccn1)c1cccs1 (centres undefined) | inconclusive: 12.5% [signal inhibitor] |  |
| CCOC(=O)c1ccn(-c2nc(-c3ccco3)cc(C(F)(F)F)n2)n1 | inconclusive: 0.912% [signal inhibitor] |  |
